Results published in the antibiotic and cytotoxicity screens of Wong et al. (2023).
The other results are listed elsewhere or left out.

Tests used:
HSkMC = human skeletal muscle cells; test: cytotoxicity call (relative viability < 0.9); settings: 10 µM
HepG2 = test: cytotoxicity call (relative viability < 0.9); settings: 10 µM
S. aureus RN4220 = test: growth inhibition call (relative growth <= 0.2); settings: 50 µM

| SMILES | cytotoxicity call (HSkMC) | cytotoxicity call (HepG2) | growth inhibition call (S. aureus RN4220) |
| --- | --- | --- | --- |
| CCS(=O)(=O)Nc1ccc2c(c1)C(=O)N(C)C[C@@H](OC)[C@@H](C)CN(CCC(F)(F)F)[C@@H](C)CO2 | inactive | inactive | inactive |
| C[C@@H]1CN([C@@H](C)CO)S(=O)(=O)c2ccc(C#Cc3ccncc3)cc2O[C@@H]1CN(C)S(=O)(=O)c1ccccc1 | inactive | active | inactive |
| C[C@H](CO)N1C[C@H](C)[C@H](CN(C)S(=O)(=O)c2ccccc2)Oc2c(NS(=O)(=O)c3ccccc3)cccc2C1=O | inactive | inactive | inactive |
| CC(C)NC(=O)N(C)C[C@H]1OCCCC[C@@H](C)Oc2ccc(NC(=O)Nc3ccccc3)cc2C(=O)N([C@H](C)CO)C[C@@H]1C | inactive | inactive | inactive |
| COc1cccc(NC(=O)N[C@@H]2CC[C@H](CC(=O)N3CCN(C)CC3)O[C@@H]2CO)c1 | inactive | inactive | inactive |
| COc1ccc2c3c([nH]c2c1)[C@H](CO)N(C[C@]13CCN(CC1)C(=O)Nc1ccc2c(c1)OCO2)C(=O)Nc1ccc(cc1)F | inactive | inactive | inactive |
| C[C@@H]1CN([C@H](C)CO)C(=O)c2cccc(NC(=O)Nc3cccc4ccccc34)c2O[C@@H]1CN(C)Cc1ccc(C(=O)Nc2ccccc2N)cc1 | inactive | inactive | inactive |
| COc1ccc(S(=O)(=O)N(C)C[C@H]2Oc3ccc(NS(C)(=O)=O)cc3C(=O)N([C@@H](C)CO)C[C@H]2C)cc1 | inactive | inactive | inactive |
| Cc1noc(C)c1S(=O)(=O)N(C)C[C@H]1Oc2ccc(NC(=O)Cn3cnnn3)cc2CC(=O)N([C@@H](C)CO)C[C@@H]1C | inactive | inactive | inactive |
| Cc1noc(C)c1S(=O)(=O)N(C)C[C@H]1Oc2ccc(NC(=O)c3ccncc3)cc2C(=O)N([C@H](C)CO)C[C@@H]1C | inactive | inactive | inactive |
| COc1ccc([Si](C)(C)[C@H]2[C@H](CC(=O)N3Cc4ccccc4C[C@H]3CO)O[C@@]3(C(=O)N(Cc4cccc(N5CCCCC5=O)c4)c4ccccc43)[C@@H]2C)cc1 | inactive | inactive | inactive |
| O=C(C[C@@H]1CC[C@@H]2[C@H](COC[C@@H](O)CN2C(=O)c2ccncc2)O1)NC1CCC1 | inactive | inactive | inactive |
| Cc1noc(C)c1NC(=O)Nc1ccc2c(c1)C(=O)N([C@@H](C)CO)C[C@H](C)[C@H](CN(C)S(=O)(=O)c1cn(C)cn1)O2 | inactive | inactive | inactive |
| C[C@@H]1CCCCO[C@H](CN(C)Cc2ccc(C(=O)O)cc2)[C@@H](C)CN([C@H](C)CO)C(=O)c2cc(NC(=O)Nc3ccc4c(c3)OCO4)ccc2O1 | inactive | inactive | inactive |
| C[C@H](CO)N1C[C@H](C)[C@@H](CN(C)S(C)(=O)=O)Oc2ccc(NS(=O)(=O)c3cccs3)cc2C1=O | inactive | inactive | inactive |
| C[C@@H]1S[C@H](C)C(=O)NC1=O | inactive | inactive | inactive |
| O=C1NC(=O)C2(CCCC2)N1 | inactive | inactive | inactive |
| Cc1cc(C(C)(C)C)c(O)c(C(C)(C)C)c1 | active | active | inactive |
| CCCC#Cc1ccc2c(c1)O[C@H](CN(C)S(=O)(=O)c1cccc(F)c1)[C@@H](C)CN([C@@H](C)CO)S2(=O)=O | inactive | inactive | inactive |
| CCCCN(CCCC)CC(O)c1cc(Cl)cc2c1-c1ccc(Cl)cc1C2=Cc1ccc(Cl)cc1 (stereo not drawn) | inactive | active | inactive |
| COc1ccc(NC(=O)Nc2ccc3c(c2)C(=O)N([C@H](C)CO)C[C@H](C)[C@H](CN(C)S(=O)(=O)c2cn(C)cn2)O3)cc1 | inactive | inactive | inactive |
| Cc1noc(C)c1S(=O)(=O)Nc1ccc2c(c1)CC(=O)N([C@H](C)CO)C[C@@H](C)[C@H](CN(C)Cc1ccc(C(=O)O)cc1)O2 | inactive | inactive | inactive |
| COc1ccc(S(=O)(=O)Nc2ccc3c(c2)C(=O)N([C@H](C)CO)C[C@H](C)[C@H](CN(C)Cc2ccccc2)OCCCC[C@@H](C)O3)cc1 | inactive | inactive | inactive |
| Cc1ccc(S(=O)(=O)Nc2cccc3c2O[C@@H](CN(C)C(=O)NC(C)C)[C@H](C)CN([C@@H](C)CO)C3=O)cc1 | inactive | inactive | inactive |
| Nc1nc(=O)c2[nH]c(=O)c(=O)[nH]c2[nH]1 | inactive | inactive | inactive |
| Cn1c2c(c(=O)n(C)c1=O)CN(CC1CC1)CN2 | inactive | inactive | inactive |
